{
  "source": "the supplement of paper PMC10441789",
  "note": "Some of the results follow. Antibody binding of pooled human sera (four to six donors per pool; dilution not stated) to peptides of the Trypanosoma cruzi antigen TSSA on microarrays. Quantile-normalised fluorescence in arbitrary units, mean of duplicate arrays; higher = more binding. No active / inactive call. The uninfected pools are read here as the healthy donors of the same country. The strongest signals lie near the top of the scale (about 60,000).",
  "data": [
    {"test_system": "pooled sera of uninfected people, USA", "assay": "antibody binding signal (normalised fluorescence) (arbitrary fluorescence units); higher = stronger serum antibody binding to peptide", "description": "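Microarray of 15-residue peptides over residues 30-55 of Trypanosoma cruzi TSSAII, each with 1 to 10 substitutions at naturally variable positions, probed with one serum pool per country.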", "values": [
      {"sequence": "KKTAAGETPSQPGAS", "antibody binding signal": 313},
      {"sequence": "GTEKKAAAGETPSQS", "antibody binding signal": 135},
      {"sequence": "KENKTATGETPSPPG", "antibody binding signal": 1230},
      {"sequence": "EKKTATGGTPSQSGA", "antibody binding signal": 559},
      {"sequence": "TDNKTATGGAPSPSG", "antibody binding signal": 218},
      {"sequence": "PSGTENKTAAGGAPS", "antibody binding signal": 541},
      {"sequence": "GKDKKTAAGEAPSQS", "antibody binding signal": 92.7},
      {"sequence": "TPPSGTEKKTAAGEA", "antibody binding signal": 156},
      {"sequence": "TISTPPSGKENKTAA", "antibody binding signal": 621},
      {"sequence": "SSTPPSGKEKKPAAG", "antibody binding signal": 306},
      {"sequence": "TENKAAAGGTPSPSG", "antibody binding signal": 140},
      {"sequence": "TENKAAAGETPSPSG", "antibody binding signal": 2390},
      {"sequence": "KENKPATGGAPSQPG", "antibody binding signal": 177},
      {"sequence": "KENKPAAGETPSQSG", "antibody binding signal": 124},
      {"sequence": "SSTPPSGKEKKTATG", "antibody binding signal": 136},
      {"sequence": "GTDKKTATGGTPSPS", "antibody binding signal": 133},
      {"sequence": "PSGTEKKPATGGTPS", "antibody binding signal": 666},
      {"sequence": "TEKKAATGETPSQPG", "antibody binding signal": 329},
      {"sequence": "TENKPAAGEAPSPSG", "antibody binding signal": 182},
      {"sequence": "EKKAATGEAPSQPGA", "antibody binding signal": 966},
      {"sequence": "GTENKAATGETPSQP", "antibody binding signal": 109},
      {"sequence": "GTEKKPATGEAPSPP", "antibody binding signal": 963},
      {"sequence": "PPSGTEKKTAAGEAP", "antibody binding signal": 263},
      {"sequence": "GTENKPATGETPSPP", "antibody binding signal": 614},
      {"sequence": "SSTPPSGKEKKAAAG", "antibody binding signal": 120},
      {"sequence": "GKENKTATGGAPSQP", "antibody binding signal": 183},
      {"sequence": "EKKTAAGGAPSQSGA", "antibody binding signal": 551},
      {"sequence": "KPATGGTPSQSGASS", "antibody binding signal": 206},
      {"sequence": "GKDNKAAAGEAPSPS", "antibody binding signal": 79.5},
      {"sequence": "TSSTPPSGKEKKPAA", "antibody binding signal": 269},
      {"sequence": "TSSTPPSGKDKKAAA", "antibody binding signal": 189},
      {"sequence": "NKAATGETPSQPGAS", "antibody binding signal": 1380},
      {"sequence": "SGKDNKPAAGEAPSQ", "antibody binding signal": 94.6},
      {"sequence": "TDKKPAAGETPSPSG", "antibody binding signal": 1860},
      {"sequence": "PSGTENKAATGGAPS", "antibody binding signal": 305},
      {"sequence": "EKKPATGGTPSPPGA", "antibody binding signal": 778},
      {"sequence": "DNKPATGETPSPSGA", "antibody binding signal": 637},
      {"sequence": "SGKDNKPAAGGTPSP", "antibody binding signal": 131},
      {"sequence": "KKPATGETPSPSGAS", "antibody binding signal": 547}
    ]}
  ]
}
